In all, about 110,000 compounds were measured (“z-score”: median about -0.1, highest 2% from about 2 on). This is one part of the list.

This assay concerns the target Metabotropic glutamate receptor 8 (Rattus norvegicus) (UniProt P70579). Briefly: rat mGluR8 modulators via GIRK flux, primary screen, cell-based, thallium flux, HTS (AID 488969). The following applies: HEK293 rat mGluR8, GIRK (G protein-gated inwardly rectifying potassium channel) thallium flux, FluoZin2; at 10 µM; stronger effect = higher value; submaximal glutamate (EC20) added with thallium.
Sequence of UniProt P70579 (P70579 whole entry, looked up): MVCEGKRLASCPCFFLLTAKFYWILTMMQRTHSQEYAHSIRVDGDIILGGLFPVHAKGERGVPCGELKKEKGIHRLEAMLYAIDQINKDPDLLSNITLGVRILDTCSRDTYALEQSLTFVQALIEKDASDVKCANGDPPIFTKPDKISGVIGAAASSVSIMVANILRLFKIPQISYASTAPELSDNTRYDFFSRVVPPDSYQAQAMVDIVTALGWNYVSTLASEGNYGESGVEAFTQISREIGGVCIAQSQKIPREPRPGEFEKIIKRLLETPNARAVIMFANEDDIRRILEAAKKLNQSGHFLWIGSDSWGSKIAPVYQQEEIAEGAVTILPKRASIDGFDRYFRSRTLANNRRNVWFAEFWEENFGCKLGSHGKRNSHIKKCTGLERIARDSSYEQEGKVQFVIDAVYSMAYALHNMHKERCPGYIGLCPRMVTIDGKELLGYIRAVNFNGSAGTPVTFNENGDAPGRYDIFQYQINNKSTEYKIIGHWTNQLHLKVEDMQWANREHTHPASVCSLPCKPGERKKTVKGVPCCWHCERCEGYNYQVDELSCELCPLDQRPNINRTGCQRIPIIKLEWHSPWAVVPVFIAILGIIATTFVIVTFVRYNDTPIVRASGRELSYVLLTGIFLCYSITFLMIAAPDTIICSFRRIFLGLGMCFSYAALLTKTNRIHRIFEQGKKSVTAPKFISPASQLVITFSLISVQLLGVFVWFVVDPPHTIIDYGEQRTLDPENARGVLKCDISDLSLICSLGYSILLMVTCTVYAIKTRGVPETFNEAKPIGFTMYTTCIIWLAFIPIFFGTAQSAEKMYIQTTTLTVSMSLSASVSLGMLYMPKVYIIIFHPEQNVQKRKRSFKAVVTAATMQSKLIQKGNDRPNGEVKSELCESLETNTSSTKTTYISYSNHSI
`CCN1CCN(C(=O)c2nn(-c3ccccc3)c(=O)c3ccccc23)CC1` had a z-score of -0.208.

`CCCCCn1c(CN2CCN(Cc3ccccc3)CC2)nc2c1c(=O)n(C)c(=O)n2C`: the z-score is -0.501.

Compound `O=C(c1ccccc1)N1CCN(C(=O)c2ccncc2)CC1` had a z-score of 0.313.

As to `COc1ccc(C(=O)Nc2ccc(C(=O)OCC(=O)c3cccc4ccccc34)cc2)cc1`, the z-score was -0.213.

Regarding `CC(C)c1nc(C#N)c(NCCCn2ccnc2)o1`, the z-score worked out at 0.481.

`Cc1cccc(NC(=S)Nc2ccc(Br)cc2)c1` yielded a z-score of 0.413.

As for `O=C(/C=C/c1ccccc1)Nc1cc(S(=O)(=O)N2CCOCC2)ccc1N1CCCC1`, the z-score is -0.369.

`Cc1ccc(-n2c3c(cc(C(=O)NC4CCSC4=O)c2=O)C(=O)CC(C)(C)C3)cc1` (stereo unspecified) returned a z-score of 0.499.

In turn, `O=C(NNc1ccc([N+](=O)[O-])cc1)C1C2CCCCC21` (stereo unspecified) returned a z-score of 0.0673.

`CCOC(=O)Cc1csc(N/N=C\c2cccc(Br)c2)n1` displayed a z-score of -0.205.

In the case of `COc1cc(C2C(C#N)=C(N)N(Nc3ccccc3)C3=C2C(=O)CC(C)(C)C3)ccc1OCc1cccc(F)c1` (stereo unspecified), the z-score is -0.0381.

As for `Cn1c(CC(=O)NC(C)(C)CO)c(Sc2ccccc2)c2ccccc21`, the z-score is -0.552.

`O=C(NC(=O)c1ccccc1)NC(=O)c1ccccc1` showed a z-score of 0.327.

The compound `COc1ccc(S(=O)(=O)Nc2nnc(C(C)C)s2)cc1` registered a z-score of -0.251.

Turning to `CCCCOc1ccc(-c2nc(SCC(N)=O)n[nH]2)cc1`, the z-score is -0.135.

In turn, `CC/C=C/C(=O)N1CC2(CC(c3cccc(NC(=O)c4ccccc4)c3)=NO2)C[C@@H]1C(N)=O` (stereo partly specified) came in with a z-score of -0.33.

In the case of `COCCN1CN(S(=O)(=O)c2ccccc2)c2nc3ccccc3nc21`, the z-score is -0.27.

`O=c1c2c3c(sc2n2cnnc2n1Cc1ccccc1)CN(Cc1ccccc1)CC3` registered a z-score of -0.849.

`O=C(NCc1cccs1)c1ccc2c(c1)ncn2C1CCCC1` returned a z-score of -0.256.

The compound `CSc1cc(N2CCOCC2)nc(-c2ccccc2Cl)n1` yielded a z-score of -0.837.

Regarding `CCOC(=O)C1CCN(Cc2c(O)ccc3ccccc23)CC1`, the z-score was -0.762.

For `NC(=O)C1CCCN(S(=O)(=O)c2ccc(Br)cc2)C1` (stereo unspecified), the z-score turned out to be 0.19.

`O=C(CNC(=O)c1cccs1)OCC(=O)c1ccc2ccccc2c1` displayed a z-score of -0.171.

Turning to `CCOC(=O)CC1=CC(C)(CC(=O)OCC)C(C#N)(C#N)C(N)=C1C#N` (stereo unspecified), the z-score was found to be 0.433.

In turn, `COc1ccc(NC(=O)c2ccccc2NC(=O)COc2ccccc2)cc1` yielded a z-score of -0.239.

In turn, `COCCCNC(=O)CSc1nc2ccccc2c(=O)n1CCCC(=O)NCC1CCCO1` (stereo unspecified) displayed a z-score of 0.181.

On to `Fc1ccccc1C(c1nnnn1Cc1ccc2c(c1)OCO2)N1CCN(Cc2ccccc2)CC1` (stereo unspecified), for which the z-score was 0.871.

`COC(=O)Nc1nc(-c2ccccc2)c(C(=O)c2ccc(Cl)cc2)s1` came in with a z-score of -0.124.

`O=C(Oc1ccc2c(-c3ccccc3)cc(=O)oc2c1)C1CCCCC1` yielded a z-score of 0.0348.

On to `CCCN1C(=O)c2ccc(C(=O)Nc3nccs3)cc2C1=O`, for which the z-score is 0.115.

`CNC(=O)c1sc2nc(-c3ccc(OC)cc3)cn2c1C` came in with a z-score of -0.425.

Regarding `COC(=O)Cc1cc(=O)n2[nH]c(C)cc2n1`, the z-score was -0.0303.

For `CC(NC(=O)c1ccc(=O)oc1)c1ccccc1` (stereo unspecified), the z-score was 0.104.

The compound `Cc1ccc(S(=O)(=O)NC(=O)NCc2ccc3c(c2)OCO3)cc1` displayed a z-score of 0.502.

Regarding `CC(=O)N1CCc2cc(S(=O)(=O)N3CCOCC3)ccc21`, the z-score is -0.00162.

With `CCOc1cc(/C=N/Nc2nc(N3CCCC3)nc(N3CCCC3)n2)ccc1O`, the z-score was -0.549.

`CC(C)C(=O)O/N=C(\N)c1ccccn1` showed a z-score of -0.083.

The compound `CSc1nc(Sc2cccc(Cl)c2)c2ccccc2n1` registered a z-score of 0.093.

In turn, `CCC(CC)C(=O)N=C1SC2CS(=O)(=O)CC2N1CCc1ccc(OC)cc1` (stereo unspecified) gave a z-score of 0.172.

Compound `Nc1c(C(=O)NCc2ccc(F)cc2)c2nc3ccccc3nc2n1CCCN1CCOCC1` had a z-score of -0.163.

`Cc1ccc(S(=O)(=O)Nc2nc3ccccc3s2)cc1` gave a z-score of -0.644.

In turn, `CCOC(=O)c1c(C)[nH]c(C)c1C(=O)CSc1nc2ccccc2n1CC` had a z-score of -0.111.

`COc1ccc(C(=O)NC(Oc2ccccc2)C(Cl)(Cl)Cl)cc1` (stereo unspecified): the z-score was -0.143.

Consider `O=C(CSc1nnc(-c2cccnc2)n1Cc1ccco1)NCc1ccc2c(c1)OCO2`, for which the z-score is -0.237.

As for `CS(=O)(=O)N(CC(=O)NCc1ccco1)Cc1ccc(Cl)cc1`, the z-score was 1.22.

The compound `O=C(c1ccc2c(c1)OCCO2)N1CCN(Cc2ccccc2)CC1` yielded a z-score of -0.112.

In turn, `COC(=O)N/N=C/c1cn(Cc2c(Cl)cccc2Cl)c2ccccc12` gave a z-score of -0.175.

In turn, `CCOc1ccc(S(=O)(=O)N2Cc3ccccc3CC2C(=O)NCCCn2ccnc2)cc1` (stereo unspecified) had a z-score of 0.0281.

The compound `CC(C)(C)C1CCC(=NNC(=O)C(=O)NC2CCCCC2)CC1` (stereo unspecified) showed a z-score of 0.0263.

In turn, `CCOc1ccccc1C(C(=O)NC1CCCC1)N(Cc1ccco1)C(=O)CNC(=O)c1ccco1` (stereo unspecified) returned a z-score of -0.231.

Turning to `CCc1ccc(CCC(=O)Nc2nccs2)o1`, the z-score is -0.0438.

`Cc1sc2nc(SCC(=O)NCc3ccco3)n(Cc3ccccc3)c(=O)c2c1C` showed a z-score of -0.304.

The compound `Cc1ccc(-c2[nH]nc(N)c2N=Nc2ccccc2C)cc1` registered a z-score of -0.563.

The compound `CC(OC1=CC(=O)CCC1)C(=O)c1ccccc1` (stereo unspecified) yielded a z-score of -0.135.

Compound `O=C1NC(c2cc3c(cc2Cl)OCO3)Oc2ccccc21` (stereo unspecified) returned a z-score of 0.154.

In the case of `CCCCN1CNC(=S)N(c2cc(C)ccc2C)C1`, the z-score is -0.162.

With `CC(C)OC(=O)N(C)c1ccc(C(O)(C(F)(F)F)C(F)(F)F)cc1`, the z-score is -1.26.

Consider `COc1ccc(-n2c(=O)[nH]cc(C(=O)Nc3ccc4c(c3)OCCO4)c2=O)cc1`, for which the z-score was -0.488.

For `CCOC(=O)C(NC(C)=O)(Nc1ccc(S(=O)(=O)Nc2onc(C)c2C)cc1)C(F)(F)F` (stereo unspecified), the z-score was 0.0468.

On to `CCOc1ccc(NC(=O)CCC(=O)OC)cc1`, for which the z-score is -0.125.

`COc1ccccc1OCCSc1ncnc2nc[nH]c12` had a z-score of -0.266.

On to `CCOc1ccc(Oc2cc(C)nc(SC)n2)nn1`, for which the z-score was 0.587.

Compound `O=C(NCc1ccco1)C1(c2ccc(Br)cc2)CCCC1` displayed a z-score of -0.492.

`CC(C)CC(=O)NC(=S)Nc1ccc(S(=O)(=O)Nc2nccs2)cc1`: the z-score is -0.174.

The compound `O=C1C2C(c3ccccc3)C=CC(c3ccccc3)C2C(=O)N1c1ccccn1` (stereo unspecified) gave a z-score of -0.247.

For the compound `Cc1ccc(/C(O)=C/C(=O)C(=O)NNC(=O)C(O)(c2ccccc2)c2ccccc2)cc1`, the z-score came out at 2.44.

`CCc1nc2oc3ccccc3c(=O)c2c(=O)n1Cc1ccc(OC)cc1` registered a z-score of -0.634.

The compound `Cc1cc(=O)oc2cc(OCCCN3C(=O)c4ccccc4C3=O)ccc12` came in with a z-score of -0.345.

Compound `C/C(CC(=O)NCc1ccco1)=N\NC(=O)Cc1cccc2ccccc12` showed a z-score of -0.268.

For `CC1=NC(=O)C(N=Nc2ccccc2)N1c1ccccc1` (stereo unspecified), the z-score came out at 1.78.

Take `Cc1nc(-c2cccc(NS(=O)(=O)c3cccc4ccccc34)c2)cs1`: the z-score is -0.314.

These data come from PubChem BioAssay AID488969 (Vanderbilt High Throughput Screening Facility, 2010).
